# Reference: patent publication US6420157B1, “Zymogen activation system” (Ortho-McNeil Pharmaceutical, Inc., priority 1999, dated 2002)
# B1: CFEK2-Prot.F-6XHIS: recombinant human protease F catalytic domain in a zymogen activation construct; elsewhere named PFEK2-protease F-6XHIS (SEQ.ID.NO.:53) (protein)
# chain: MAFLWLLSCWALLGTTFGCGVPDYKDDDDAAALAAPFDDDDKIVGGYALELGRWPWQGSLRLWDSHVCGVSLLSHRWALTAAHCFETYSDLSDPSGWMVQFGQLTSMPSFWSLQAYYNRYFVSNIYLSPRYLGNSPYDIALVKLSAPVTYTKHIQPICLQASTFEFENRTDCWVTGWGYIKEDEALPSPHTLQEVQVAIINNSMCNHLFLKYSFRKDIFGDMVCAGNAQGGKDACFGDSGGPLACNKNGLWYQIGVVSWGVGCGRPNRPGVYTNISHHFEWIQKLMAQSGMSQPDPSWSRHHHHHH
# How the values were obtained:
# [1] = Chromogenic amidolytic assay, release of pNA from H-D-Pro-HHT-Arg-pNA; assay type: biochemical; details: EK-activated protease; substrate 500 uM; pH 7.8; 37° C.; 120 minutes
# Description: (§1) Cells were lysed on ice in 20 mM Tris (pH7.4), 150 mM NaCl, 1% Triton X-100, 1 mM EDTA, 1 mM EGTA, 1 mM PMSF, leupeptin (1 μg/ml), and pepstatin (1 μg/ml). Cell lysates were mixed with anti-FLAG M2 affinity gel (Eastman Kodak Co., New Haven, Conn.) and bound at 4° C. for 3 hours with gentle rotation. The zymogen-bound resin was washed 3 times with TBS buffer (50 mM Tris-HCl, 150 mM NaCl at a final pH of 7.5), and eluted by competition with FLAG peptide (100 μg/ml) in TBS buffer. The eluted zymogen was dialyzed overnight against TBS in Spectra/Por membrane (MWCO: 12,000-14,000) (Spectra Medical Industries, Inc., Huston, Tex.). […] Eluted protein concentration was determined by a Micro BCA Kit (Pierce, Rockford, Ill.) using bovine serum albumin as a standard. Amidolytic activities of the activated protease was monitored by release of para-nitroaniline (pNA) from the synthetic substrates indicated in Table 2. […] Release of pNA was measured over 120 minutes at 37° C. on a micro-plate reader (Molecular Devices, Menlo Park, Calif.) with a 405 nm absorbance filter. The initial reaction rates (Vmax, mOD/min) were determined from plots of absorbance versus time using Softmax (Molecular Devices, Menlo Park, Calif.). […] No measurable chromogenic amidolytic activity was detected with the purified unactivated zymogens. […]
# [2] = Chromogenic amidolytic assay, release of pNA from H-D-Lys(CBO)-Pro-Arg-pNA; assay type: biochemical; details: EK-activated protease; substrate 500 uM; pH 7.8; 37° C.; 120 minutes
# Description: as §1
molecule,measurement,setting,value
B1,"specific activity, H-D-Pro-HHT-Arg-pNA",[1],0.016 nmole pNA produced /min/ug protein
same,"specific activity, H-D-Lys(CBO)-Pro-Arg-pNA",[2],0.045 nmole pNA produced /min/ug protein
